# Measurements reported in the supplement of paper PMC8728848.
# The other results are listed elsewhere or left out.
# B1: GALT1 115 D492A (Arabidopsis thaliana), Q8L7F9 (protein)
# chain: DPMRGSHHHHHHGMASMTGGQQMGRDLYDDDDKSRLQKPYITAAASVVVTPNTTLPMEWLRITLPDFMKEARNTQEAISGDDIAVVSGLFVEQNVSKEEREPLLTWNRLESLVDNAQSLVNGVDAIKEAGIVWESLVSAVEAKKLVDVNENQTRKGKEELCPQFLSKMNATEADGSSLKLQIPCGLTQGSSITVIGIPDGLVGSFRIDLTGQPLPGEPDPPIIVHYNVRLLGDKSTEDPVIVQNSWTASQDWGAEERCPKFDPDMNKKVDDLDECNKMVGGEINRTSSTSLQSNTSRGVPVAREASKHEKYFPFKQGFLSVATLRVGTEGMQMTVDGKHITSFAFRDTLEPWLVSEIRITGDFRLISILASGLPTSEESEHVVDLEALKSPTLSPLRPLDLVIGVFSTANNFKRRMAVRRTWMQYDDVRSGRVAVRFFVGLHKSPLVNLELWNEARTYGDVQLMPFVDYYSLISWKTLAICIFGTEVDSAKFIMKTDDAAFVRVDEVLLSLSMTNNTRGLIYGLINSDSQPIRNPDSKWYISYEEWPEEKYPPWAHGPGYIVSRDIAESVGKLFKEGNLKMFKLEDVAMGIWIAELTKHGLEPHYENDGRIISDGCKDGYVVAHYQSPAEMTCLWRKYQETKRSLCCREW
# Legend:
# Assay in all cases: glycan array binding signal (z-score within array); higher = stronger binding
# Conditions in all cases: glycan notation: IUPAC condensed, linker removed
# [1] = target: Neu5Ac(a2-3)Gal(b1-4)[Fuc(a1-3)]GlcNAc(b1-3)Gal(b1-4)[Fuc(a1-3)]GlcNAc(b1-3)Gal(b1-4)[Fuc(a1-3)]GlcNAc
# Outline: (§1)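 From the Consortium for Functional Glycomics database, 3228 arrays were curated, keeping only those whose protein sequence was available. Binding is given as a within-array Z-score averaged across arrays sharing a protein sequence and across linkers. Negative Z-scores can be read as non-binding.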
# [2] = target: Neu5Ac(a2-3)Gal(b1-4)[Fuc(a1-3)]GlcNAc(b1-6)[Gal(b1-3)]GalNAc
# Outline: as §1
# [3] = target: Neu5Ac(a2-3)Gal(b1-4)[Fuc(a1-3)]GlcNAc(b1-6)[Neu5Ac(a2-3)Gal(b1-3)]GalNAc
# Outline: as §1
# [4] = target: Neu5Ac(a2-3)Gal(b1-4)[Fuc(a1-3)]GlcNAc6S
# Outline: as §1
# [5] = target: Neu5Ac(a2-3)Gal6S(b1-4)GlcNAc
# Outline: as §1
# [6] = target: Neu5Ac(a2-3)Gal6S(b1-4)[Fuc(a1-3)]GlcNAc
# Outline: as §1
# Neu5Ac(a2-3)GalNAc = target: Neu5Ac(a2-3)GalNAc
# Outline: as §1
# [7] = target: Neu5Ac(a2-3)GalNAc(b1-4)GlcNAc
# Outline: as §1
# [8] = target: Neu5Ac(a2-3)[GalNAc(b1-4)]Gal(b1-4)Glc
# Outline: as §1
# [9] = target: Neu5Ac(a2-3)[GalNAc(b1-4)]Gal(b1-4)GlcNAc
# Outline: as §1
# [10] = target: Neu5Ac(a2-3)[Neu5Ac(a2-6)]GalNAc
# Outline: as §1
# Neu5Ac(a2-6)Gal = target: Neu5Ac(a2-6)Gal
# Outline: as §1
# Neu5Ac(a2-6)Gal(b1-4)Glc = target: Neu5Ac(a2-6)Gal(b1-4)Glc
# Outline: as §1
# [11] = target: Neu5Ac(a2-6)Gal(b1-4)GlcNAc
# Outline: as §1
# [12] = target: Neu5Ac(a2-6)Gal(b1-4)GlcNAc(b1-2)Man(a1-3)Man(b1-4)GlcNAc(b1-4)GlcNAc
# Outline: as §1
# [13] = target: Neu5Ac(a2-6)Gal(b1-4)GlcNAc(b1-2)Man(a1-3)[Gal(b1-4)GlcNAc(b1-2)Man(a1-6)]Man(b1-4)GlcNAc(b1-4)GlcNAc
# Outline: as §1
# [14] = target: Neu5Ac(a2-6)Gal(b1-4)GlcNAc(b1-2)Man(a1-3)[GlcNAc(b1-2)Man(a1-6)]Man(b1-4)GlcNAc(b1-4)GlcNAc
# Outline: as §1
# [15] = target: Neu5Ac(a2-6)Gal(b1-4)GlcNAc(b1-2)Man(a1-3)[GlcNAc(b1-2)Man(b1-4)GlcNAc(b1-2)Man(a1-6)]Man(b1-4)GlcNAc(b1-4)GlcNAc
# Outline: as §1
# [16] = target: Neu5Ac(a2-6)Gal(b1-4)GlcNAc(b1-2)Man(a1-3)[Man(a1-6)]Man(b1-4)GlcNAc(b1-4)GlcNAc
# Outline: as §1
# [17] = target: Neu5Ac(a2-6)Gal(b1-4)GlcNAc(b1-2)Man(a1-3)[Neu5Ac(a2-6)Gal(b1-4)GlcNAc(b1-2)Man(a1-6)]Man(b1-4)GlcNAc(b1-4)GlcNAc
# Outline: as §1
# [18] = target: Neu5Ac(a2-6)Gal(b1-4)GlcNAc(b1-2)Man(a1-6)Man(b1-4)GlcNAc(b1-4)GlcNAc
# Outline: as §1
# [19] = target: Neu5Ac(a2-6)Gal(b1-4)GlcNAc(b1-2)Man(a1-6)[Gal(b1-4)GlcNAc(b1-2)Man(a1-3)]Man(b1-4)GlcNAc(b1-4)GlcNAc
# Outline: as §1
# [20] = target: Neu5Ac(a2-6)Gal(b1-4)GlcNAc(b1-2)Man(a1-6)[GlcNAc(b1-2)Man(a1-3)]Man(b1-4)GlcNAc(b1-4)GlcNAc
# Outline: as §1
# [21] = target: Neu5Ac(a2-6)Gal(b1-4)GlcNAc(b1-2)Man(a1-6)[Man(a1-3)]Man(b1-4)GlcNAc(b1-4)GlcNAc
# Outline: as §1
# [22] = target: Neu5Ac(a2-6)Gal(b1-4)GlcNAc(b1-3)Gal(b1-3)GlcNAc
# Outline: as §1
# [23] = target: Neu5Ac(a2-6)Gal(b1-4)GlcNAc(b1-3)Gal(b1-4)GlcNAc
# Outline: as §1
# [24] = target: Neu5Ac(a2-6)Gal(b1-4)GlcNAc(b1-3)Gal(b1-4)GlcNAc(b1-3)Gal(b1-4)GlcNAc
# Outline: as §1
# [25] = target: Neu5Ac(a2-6)Gal(b1-4)GlcNAc(b1-3)Gal(b1-4)[Fuc(a1-3)]GlcNAc(b1-3)Gal(b1-4)[Fuc(a1-3)]GlcNAc
# Outline: as §1
# [26] = target: Neu5Ac(a2-6)Gal(b1-4)GlcNAc(b1-3)GalNAc
# Outline: as §1
# [27] = target: Neu5Ac(a2-6)Gal(b1-4)GlcNAc6S
# Outline: as §1
# Neu5Ac(a2-6)GalNAc = target: Neu5Ac(a2-6)GalNAc
# Outline: as §1
# [28] = target: Neu5Ac(a2-6)GalNAc(b1-4)GlcNAc
# Outline: as §1
# [29] = target: Neu5Ac(a2-6)GlcNAc(b1-4)GlcNAc
# Outline: as §1
# [30] = target: Neu5Ac(a2-6)GlcNAc(b1-4)GlcNAc(b1-4)GlcNAc
# Outline: as §1
# Neu5Ac(a2-8)Neu5Ac = target: Neu5Ac(a2-8)Neu5Ac
# Outline: as §1
# [31] = target: Neu5Ac(a2-8)Neu5Ac(a2-3)Gal(b1-4)Glc
# Outline: as §1
# [32] = target: Neu5Ac(a2-8)Neu5Ac(a2-3)[GalNAc(b1-4)]Gal(b1-4)Glc
# Outline: as §1
# [33] = target: Neu5Ac(a2-8)Neu5Ac(a2-8)Neu5Ac
# Outline: as §1
# [34] = target: Neu5Ac(a2-8)Neu5Ac(a2-8)Neu5Ac(a2-3)Gal(b1-4)Glc
# Outline: as §1
# [35] = target: Neu5Ac(a2-8)Neu5Ac(a2-8)Neu5Ac(a2-3)[GalNAc(b1-4)]Gal(b1-4)Glc
# Outline: as §1
# [36] = target: Neu5Ac(a2-8)Neu5Ac(a2-8)Neu5Ac(a2-8)Neu5Ac(a2-3)[GalNAc(b1-4)]Gal(b1-4)Glc
# Outline: as §1
# [37] = target: Neu5Ac(b2-6)Gal(b1-4)GlcNAc
# Outline: as §1
# Neu5Ac(b2-6)GalNAc = target: Neu5Ac(b2-6)GalNAc
# Outline: as §1
# [38] = target: Neu5Ac9Ac(a2-3)Gal(b1-3)GlcNAc
# Outline: as §1
# [39] = target: Neu5Ac9Ac(a2-3)Gal(b1-4)GlcNAc
# Outline: as §1
# [40] = target: Neu5Ac9Ac(a2-6)Gal(b1-4)GlcNAc
# Outline: as §1
# [41] = target: Neu5Gc(a2-3)Gal(b1-3)GlcNAc
# Outline: as §1
# [42] = target: Neu5Gc(a2-3)Gal(b1-3)[Fuc(a1-4)]GlcNAc
# Outline: as §1
# Neu5Gc(a2-3)Gal(b1-4)Glc = target: Neu5Gc(a2-3)Gal(b1-4)Glc
# Outline: as §1
# [43] = target: Neu5Gc(a2-3)Gal(b1-4)GlcNAc
# Outline: as §1
# [44] = target: Neu5Gc(a2-3)Gal(b1-4)[Fuc(a1-3)]GlcNAc
# Outline: as §1
# [45] = target: Neu5Gc(a2-6)Gal(b1-4)GlcNAc
# Outline: as §1
# Neu5Gc(a2-6)GalNAc = target: Neu5Gc(a2-6)GalNAc
# Outline: as §1
# [46] = target: Neu5Gc(b2-6)Gal(b1-4)GlcNAc
# Outline: as §1
binder,measurement,setting,value
B1,glycan array binding signal (z-score),[1],-0.391
same,glycan array binding signal (z-score),[2],-0.228
same,glycan array binding signal (z-score),[3],1.16
same,glycan array binding signal (z-score),[4],-0.172
same,glycan array binding signal (z-score),[5],-0.05
same,glycan array binding signal (z-score),[6],1.25
same,glycan array binding signal (z-score),Neu5Ac(a2-3)GalNAc,-0.101
same,glycan array binding signal (z-score),[7],-0.293
same,glycan array binding signal (z-score),[8],-0.307
same,glycan array binding signal (z-score),[9],0.047
same,glycan array binding signal (z-score),[10],-0.42
same,glycan array binding signal (z-score),Neu5Ac(a2-6)Gal,-0.216
same,glycan array binding signal (z-score),Neu5Ac(a2-6)Gal(b1-4)Glc,-0.002
same,glycan array binding signal (z-score),[11],-0.187
same,glycan array binding signal (z-score),[12],-0.076
same,glycan array binding signal (z-score),[13],0.218
same,glycan array binding signal (z-score),[14],-0.257
same,glycan array binding signal (z-score),[15],-0.046
same,glycan array binding signal (z-score),[16],-0.462
same,glycan array binding signal (z-score),[17],0.357
same,glycan array binding signal (z-score),[18],-0.138
same,glycan array binding signal (z-score),[19],-0.362
same,glycan array binding signal (z-score),[20],-0.198
same,glycan array binding signal (z-score),[21],-0.139
same,glycan array binding signal (z-score),[22],-0.175
same,glycan array binding signal (z-score),[23],-0.441
same,glycan array binding signal (z-score),[24],-0.243
same,glycan array binding signal (z-score),[25],0.259
same,glycan array binding signal (z-score),[26],-0.313
same,glycan array binding signal (z-score),[27],0.087
same,glycan array binding signal (z-score),Neu5Ac(a2-6)GalNAc,-0.312
same,glycan array binding signal (z-score),[28],-0.406
same,glycan array binding signal (z-score),[29],-0.235
same,glycan array binding signal (z-score),[30],-0.065
same,glycan array binding signal (z-score),Neu5Ac(a2-8)Neu5Ac,-0.221
same,glycan array binding signal (z-score),[31],-0.299
same,glycan array binding signal (z-score),[32],-0.078
same,glycan array binding signal (z-score),[33],-0.105
same,glycan array binding signal (z-score),[34],-0.151
same,glycan array binding signal (z-score),[35],0.059
same,glycan array binding signal (z-score),[36],-0.089
same,glycan array binding signal (z-score),[37],-0.009
same,glycan array binding signal (z-score),Neu5Ac(b2-6)GalNAc,-0.173
same,glycan array binding signal (z-score),[38],-0.275
same,glycan array binding signal (z-score),[39],-0.039
same,glycan array binding signal (z-score),[40],-0.059
same,glycan array binding signal (z-score),[41],-0.1
same,glycan array binding signal (z-score),[42],-0.32
same,glycan array binding signal (z-score),Neu5Gc(a2-3)Gal(b1-4)Glc,0.317
same,glycan array binding signal (z-score),[43],0.25
same,glycan array binding signal (z-score),[44],-0.3
same,glycan array binding signal (z-score),[45],-0.165
same,glycan array binding signal (z-score),Neu5Gc(a2-6)GalNAc,-0.444
same,glycan array binding signal (z-score),[46],0.041
